This passage reports Kd results from paper doi:10.1101/2025.10.23.683869 (bioRxiv, 2025).

The test addresses T1, soluble biotinylated BCMA (recombinant BCMA-biotin) (UniProt Q02223 1-54, biotin).
T1 sequence (looked up): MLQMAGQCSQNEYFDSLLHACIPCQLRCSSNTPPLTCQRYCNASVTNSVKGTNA
Nature of the test: SPR. (In general: Surface plasmon resonance follows binding to a sensor surface in real time, without labels.)

B1: monovalent biNTe (heterodimeric, monovalent scFv-Fc human IgG1 bispecific iNKT engager, Fc-silent L234A/L235A (LALA), 'key-in-hole') (bispecific antibody)
chain 1: DIVLTQSPPSLAMSLGKRATISCRASESVTILGSHLIHWYQQKPGQPPTLLIQLASNVQTGVPARFSGSGSRTDFTLTIDPVEEDDVAVYYCLQSRTIPRTFGGGTKLEIKGGGGSGGGGSGGGGSQIQLVQSGPELKKPGETVKISCKASGYTFTDYSINWVKRAPGKGLKWMGWINTETREPAYAYDFRGRFAFSLETSASTAYLQINNLKYEDTATYFCALDYSYAMDYWGQGTSVTVSSGGGGSGGGGSGGGGS[… human IgG1 Fc with changes …]
chain 2: DIKMTQSPSSMYASLGERVTITCKASQDINSYLSWFQQKAGKSPKTLIYRANRLVDGVPSRFSGSGSGQDYSLTISSLEYEDMGIYYCLQYDEFPFTFGGGTRLEIKGGGGSGGGGSGGGGSQVQLQQSGPEVVRPGVSVKISCKGSGYRFTDSAMHWVKQSHAKSLEWIGVISSYNGNTNYNQKFKGKATMTVDKSSSTAYMELARMTSEDSAIYYCARSRDAMDYWGQGTSVTVSSGGGGSGGGGSGGGGS[… human IgG1 Fc with L234A L235A S354C Y407T (EU numbers) …]
With B1, the Kd was 0.0345 µM.

The term Kd denotes the equilibrium constant for the complex coming apart.
